We go through three substances from PMC11297201.

Amino acid sequences for entries named in this document (tags omitted).
UniProt P32121: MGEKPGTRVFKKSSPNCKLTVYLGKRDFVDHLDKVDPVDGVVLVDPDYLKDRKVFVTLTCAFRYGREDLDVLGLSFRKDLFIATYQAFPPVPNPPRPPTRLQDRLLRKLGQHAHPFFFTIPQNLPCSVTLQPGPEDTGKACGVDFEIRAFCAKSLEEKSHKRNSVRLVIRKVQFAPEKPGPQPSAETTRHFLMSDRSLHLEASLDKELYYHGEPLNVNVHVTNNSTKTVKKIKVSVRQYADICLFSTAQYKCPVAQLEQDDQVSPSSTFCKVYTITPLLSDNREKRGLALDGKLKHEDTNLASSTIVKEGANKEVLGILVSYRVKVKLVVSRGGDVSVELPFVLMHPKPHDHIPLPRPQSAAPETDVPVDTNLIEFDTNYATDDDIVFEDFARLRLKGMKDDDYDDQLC
UniProt P25098: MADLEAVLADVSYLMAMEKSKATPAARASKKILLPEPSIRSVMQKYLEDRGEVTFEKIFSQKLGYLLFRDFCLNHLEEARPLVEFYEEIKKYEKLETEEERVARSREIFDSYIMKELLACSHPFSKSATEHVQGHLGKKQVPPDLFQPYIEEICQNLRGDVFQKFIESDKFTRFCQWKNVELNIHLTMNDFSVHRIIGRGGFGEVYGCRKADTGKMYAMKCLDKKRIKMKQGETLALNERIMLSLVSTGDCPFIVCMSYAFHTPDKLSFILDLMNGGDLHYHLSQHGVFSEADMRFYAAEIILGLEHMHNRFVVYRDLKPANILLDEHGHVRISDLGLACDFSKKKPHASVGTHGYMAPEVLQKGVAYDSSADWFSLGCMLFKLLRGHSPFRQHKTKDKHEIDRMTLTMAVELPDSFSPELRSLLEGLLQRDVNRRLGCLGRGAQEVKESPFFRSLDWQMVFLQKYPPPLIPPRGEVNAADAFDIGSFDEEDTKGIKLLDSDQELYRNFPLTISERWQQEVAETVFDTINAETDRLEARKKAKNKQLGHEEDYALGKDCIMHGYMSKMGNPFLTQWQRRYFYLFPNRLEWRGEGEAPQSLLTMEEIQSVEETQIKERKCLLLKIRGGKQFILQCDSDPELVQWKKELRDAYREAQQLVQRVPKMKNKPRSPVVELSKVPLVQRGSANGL
UniProt P35626: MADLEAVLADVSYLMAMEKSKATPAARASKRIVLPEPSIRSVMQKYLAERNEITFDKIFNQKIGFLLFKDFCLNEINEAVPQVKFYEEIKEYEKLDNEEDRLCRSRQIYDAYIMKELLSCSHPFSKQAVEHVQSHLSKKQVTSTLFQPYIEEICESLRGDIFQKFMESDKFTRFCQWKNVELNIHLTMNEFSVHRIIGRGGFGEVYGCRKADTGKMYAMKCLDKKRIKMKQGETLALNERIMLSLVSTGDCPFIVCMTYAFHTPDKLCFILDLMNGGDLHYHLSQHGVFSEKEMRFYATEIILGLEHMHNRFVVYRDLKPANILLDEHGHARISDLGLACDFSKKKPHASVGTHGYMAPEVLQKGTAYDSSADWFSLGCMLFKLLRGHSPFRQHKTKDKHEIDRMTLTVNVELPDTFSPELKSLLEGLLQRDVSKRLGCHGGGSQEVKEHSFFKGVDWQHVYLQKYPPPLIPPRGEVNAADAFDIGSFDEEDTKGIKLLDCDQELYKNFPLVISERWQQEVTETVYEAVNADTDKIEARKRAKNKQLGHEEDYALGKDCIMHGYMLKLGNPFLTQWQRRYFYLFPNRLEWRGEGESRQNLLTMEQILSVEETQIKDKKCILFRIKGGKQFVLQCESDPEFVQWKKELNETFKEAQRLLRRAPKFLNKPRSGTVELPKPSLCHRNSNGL

These are yes or no findings as the source states them, for the method shown. Binding seen in cells or lysates may run through a third protein. Some binding calls cover weakened binding; strength is not graded here.

Experiment [1] addresses Flag-mMOR-NLuc (mouse mu-opioid receptor, wild type) (mouse) (UniProt P42866). In words: FRET or BRET; live HEK293 cells with endogenous GRKs (control; also ΔGRK2/3 and ΔGRK5/6 cells); Flag-mMOR-Nluc donor, β-arrestin2-Venus acceptor; DAMGO or fentanyl (for the STANT-2A mutant also morphine) 10 min at 37 °C in HBSS pH 7.4; baseline-corrected BRET ratio. Background: Bioluminescence resonance energy transfer reports proximity on the nanometre scale.

For experiment [2] the target is unchanged. In words: condition: only in ΔQ-GRK cells (GRK2/3/5/6 knocked out); FRET or BRET; live ΔQ-GRK HEK293 cells (GRK2/3/5/6 knocked out); Flag-mMOR-Nluc donor, β-arrestin2-Venus acceptor; DAMGO, fentanyl or morphine 10 min at 37 °C.
Experiment [3] has the same target. In words: FRET or BRET; live control HEK293 cells with endogenous GRKs; Flag-mMOR-Nluc donor, β-arrestin2-Venus acceptor; morphine 10 min at 37 °C.
The target is the same in experiment [4]. Put plainly: FRET or BRET; live ΔQ-GRK HEK293 cells overexpressing a single GRK (GRK2, GRK3, GRK5 or GRK6; for STANT-2A GRK2 or GRK5); MOR-Nluc donor, β-arrestin2-Venus acceptor; DAMGO, fentanyl or morphine 10 min at 37 °C.
Experiment [5] shares this target. Put plainly: FRET or BRET; live transfected HEK293 cells (cell line not stated); MOR-Nluc (WT or STANT-2A) donor, GRK-YFP acceptor; vehicle, DAMGO, fentanyl or morphine 10 min at 37 °C; raw BRET ratio at 10 µM and concentration response curves.
Experiment [6] addresses mMOR STANT-2A (Flag-mMOR-NLuc with Thr376Ala and Thr379Ala) (mouse) (UniProt P42866). The experiment is described as above.

With “β-arrestin2-Venus (from UniProt P32121 1-409)”, the binding result is “binds” in experiment [1], “no binding” in experiment [2], “binds weakly” in experiment [3] and “binds” in experiment [4].

Take “GRK2-YFP (human) (from UniProt P25098 1-689) (enzyme)”: the binding entry in experiment [5] and in experiment [6] was “binds” each time.

“GRK3-YFP (human) (from UniProt P35626 1-688) (enzyme)”: the binding result in experiment [5] and in experiment [6] was “binds” each time.
